Assay results: PubChem BioAssay AID1476 (National Center for Advancing Translational Sciences (NCATS), 2009)
About 4,500 (2.2%) of roughly 200,000 compounds were called active. Inconclusive means that the source gave no clear call. Such entries were picked first, then a sample of the others. Calls follow the shape of the dose curve; as a rule, active = well fitted inhibition curve with a large enough effect; inconclusive = small, poorly fitted or top-dose-only effect, or effect the other way; inactive = flat fitted curve, though single readings scatter. Potencies of inconclusive entries are doubtful fits and often do not repeat.

The compounds below were run against Cruzipain (Trypanosoma cruzi) (UniProt P25779) (assay: qHTS Assay for Promiscuous and Specific Inhibitors of Cruzain (without detergent)). Conditions: purified cruzain, Z-FR-AMC fluorescence, no detergent.
Outline: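 Detergent-free condition (0.00005% Triton X-100) in acetate buffer pH 5.5 with DTT. 1.5 nM enzyme and compound were pre-mixed 15 min, then 2 uM Z-FR-AMC substrate added; reaction progress from fluorescence change between first and third reads (60 s).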
Also: nearly all actives have a fitted effect of over 40% in size.
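For max response, negative = inhibition in this document: plate controls were enzyme without inhibitor for no effect and buffer without enzyme for full effect.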
Potency is read from the fitted curve at half-maximal effect; tags tell the direction and shape of the fitted curve.

UniProt P25779, sequence (P25779 whole entry, looked up): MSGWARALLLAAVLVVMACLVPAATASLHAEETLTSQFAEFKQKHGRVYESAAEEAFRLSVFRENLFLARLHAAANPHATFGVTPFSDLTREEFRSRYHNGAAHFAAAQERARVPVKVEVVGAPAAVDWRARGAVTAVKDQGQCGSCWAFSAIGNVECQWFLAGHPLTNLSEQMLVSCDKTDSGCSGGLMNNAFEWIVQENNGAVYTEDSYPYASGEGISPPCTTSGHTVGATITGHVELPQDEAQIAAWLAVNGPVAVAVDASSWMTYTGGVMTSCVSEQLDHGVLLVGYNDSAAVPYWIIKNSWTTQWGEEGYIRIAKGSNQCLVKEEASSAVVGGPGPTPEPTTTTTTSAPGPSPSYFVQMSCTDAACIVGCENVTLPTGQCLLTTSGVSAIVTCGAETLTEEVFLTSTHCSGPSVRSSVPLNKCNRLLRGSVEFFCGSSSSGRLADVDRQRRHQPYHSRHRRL

SMILES | Potency | max response, negative = inhibition
CCOC(=O)c1sc2nc(SCC#N)n(CCCN3CCCC3=O)c(=O)c2c1C | inconclusive: 39.8 µM [activator, single point] | 
COCCCn1c(=N)c(C(=O)NC2CCCC2)cc2c(=O)n3ccccc3nc21 | inconclusive: 39.8 µM [inhibitor, single point] | 
COc1cccc(CSc2nc3n(n2)C(c2ccccc2C)C(C(=O)Nc2ccccc2OC)=C(C)N3)c1 (stereo not drawn) | inconclusive: 31.6 µM [inhibitor, single point] | 
CCOc1ccc(CN2C(=O)c3ccccc3Sc3ccc(C(=O)NCc4ccc(C)cc4)cc32)cc1 | active: 10 µM | 
O=C(CSc1nc2ccccc2o1)N1c2ccccc2Sc2ccccc21 | inconclusive: 39.8 µM [inhibitor, single point] | 
Cc1nc2nc(SCC(=O)NC(C)c3ccccc3)nn2c(C)c1Cc1c(F)cccc1Cl (stereo not drawn) | inconclusive: 25.1 µM [inhibitor, single point] | 
Cc1noc(C)c1C(=O)N1CCC2(CC1)CN(c1ncccn1)C2 |  | inactive: 1.83%
Cc1nn2c(-c3cccc(NC(=O)CSc4nc5ccccc5o4)c3)nnc2c2ccccc12 | inconclusive: 7.94 µM [activator, single point] | 
Cc1cccc(Cn2c(C)c(C)c3cc(C(=O)NCc4ccc(C)o4)ccc32)c1 | inconclusive: 20 µM [inhibitor, single point] | 
CCN(CCCNC(=O)c1nn(-c2ccc(OC)cc2)c(=O)c2c1c1ccccc1n2C)c1cccc(C)c1 |  | inactive: -14.9%
COc1cc(/C=N/NC(=O)Nc2cccc3nsnc23)cc(OC)c1OC | inconclusive: 31.6 µM [activator, single point] | 
Cc1nc(NNC(=O)c2ccc(Cl)cc2Cl)cc(-c2ccccc2)n1 |  | inactive: -0.549%
Cc1ccc2nc(/C(C#N)=C/c3ccc(-c4cccc(Cl)c4)o3)[nH]c2c1 | active: 12.6 µM | 
Cc1c(C(=O)NC(=S)Nc2ccc(NC(=O)c3cccs3)cc2)oc2ccccc12 | active: 12.6 µM | 
CCCCCOc1ccc(C(=O)N(Cc2ccccc2)C2CCS(=O)(=O)C2)cc1 (stereo not drawn) | inconclusive: 39.8 µM [activator, single point] | 
COc1ccc(-c2nnc(SC(=O)N3c4ccccc4Sc4ccccc43)o2)cc1 | active: 31.6 µM | 
c1ccc(NC2=Nc3ccccc3CS2)cc1 | inconclusive: 39.8 µM [inhibitor, single point] | 
Cc1ccc(/C=N/N=C/c2ccc(C)cc2)cc1 | inconclusive: 39.8 µM [inhibitor, single point] | 
COCCCNC(=O)c1c(N)n(/N=C/c2cccnc2)c2nc3ccccc3nc12 | inconclusive: 25.1 µM [activator, partial curve] | 
CCn1cc(C(=O)NCc2ccc3c(c2)OCO3)c(=O)c2cc(S(=O)(=O)N3CCOCC3)ccc21 | inconclusive: 31.6 µM [activator, single point] | 
Cc1ccc(O)c(NC(=O)COc2cc(C)ccc2C)c1 | active: 31.6 µM | 

SMILES | Potency | max response, negative = inhibition
O=C(COC(=O)CNC(=O)c1ccc(Cl)cc1)Nc1ccc(Cl)cc1C(F)(F)F | active: 6.31 µM | 
O=C(CSc1ccc(Cl)cc1)Nc1cc(-c2nc3ncccc3o2)ccc1Cl | inconclusive: 39.8 µM [activator, single point] | 
Cc1ccc(-c2nc3ccccc3n3nnnc23)cc1 | inconclusive: 31.6 µM [inhibitor, single point] | 
COC(=O)CN1C(=O)CSc2ccc(S(=O)(=O)Nc3ccccc3)cc21 |  | inactive: -14.2%
Cc1ccc2c(CC(=O)N3CCN(c4cccc(Cl)c4)CC3)coc2c1C |  | inactive: 3.04%
CCOc1ccc(N2C(=O)CC(N(CCc3ccc(OC)c(OC)c3)C(=S)Nc3ccccc3)C2=O)cc1 (stereo not drawn) | inconclusive: 15.8 µM [activator, partial curve] | 
CC(=O)Nc1ccc(NC(=O)Cn2cc3c(n2)CCCCC3)cc1 |  | inconclusive: 33.7% [activator]
CO[Si](CCCNCCC[Si](OC)(OC)OC)(OC)OC |  | inactive: -1.75%
COc1ccc(C2CC(c3ccccc3)=NN2C(=O)COC(=O)c2cccc(S(=O)(=O)N(C)C)c2)cc1 (stereo not drawn) | inconclusive: 39.8 µM [inhibitor, single point] | 
C[C@@H]1O[C@H](O[C@@H]2[C@@H](Oc3cc(O)c4c(c3)O[C@H](c3ccc(O)cc3)CC4=O)O[C@@H](CO)[C@@H](O)[C@H]2O)[C@@H](O)[C@H](O)[C@@H]1O |  | inactive: -2.53%
Cn1cc(C(=O)NC2CCCCC2)c(=O)c2cc(S(=O)(=O)N3CCCC3)ccc21 | inconclusive: 39.8 µM [activator, single point] | 
Cc1cn2c(=O)cc(COC(=O)c3cccc(NC(=O)COc4ccccc4)c3)nc2s1 |  | inactive: 10.9%
COc1ccc(NC(=O)c2ccc3c(c2)N(Cc2cccc(Cl)c2)C(=O)c2ccccc2S3(=O)=O)cc1Cl | active: 3.16 µM | 
O=C1C2C3C=CC(C3)C2C(=O)N1CCN1CCN(S(=O)(=O)c2ccc3ccccc3c2)CC1 (stereo not drawn) | inconclusive: 31.6 µM [activator, single point] | 
CC1=Nc2cc(C(=O)NC3CCC(C)CC3)ccc2Sc2c(C)ccc(C)c21 (stereo not drawn) | inconclusive: 25.1 µM [inhibitor, partial curve, poor fit] | 
COc1cc(C(=O)N2CCc3c([nH]c4ccccc34)C2c2ccc(F)cc2)cc(OC)c1OC (stereo not drawn) |  | inactive: -3.98%
CCC1=C(OC(=O)N(CC)CC)N2C(=O)OC(=NCCOC)[C@]2(Cc2ccccc2)[C@H]2C1=CC[C@H]1C(=O)NC(=O)[C@H]12 | inconclusive: 31.6 µM [activator, partial curve] | 
COc1cc(NC(=O)c2cccs2)c(C(=O)OCC(=O)c2cc(C)n(-c3ccc(F)cc3)c2C)cc1OC | active: 3.98 µM | 
COc1cc(-c2noc(-c3ccc(N4CCCC4)c([N+](=O)[O-])c3)n2)cc(OC)c1OC | inconclusive: 31.6 µM [inhibitor, single point] | 
CC(=O)N1CCc2c(sc3c2c(=O)n(Cc2ccccc2)c(=O)n3Cc2cccc(Cl)c2)C1 | inconclusive: 5.01 µM [activator, single point] | 
COC(=O)c1ccc(Nc2nc(-c3ccc(C)cc3)nc3ccccc23)cc1 | inconclusive: 6.31 µM [activator, single point] | 

SMILES | Potency | max response, negative = inhibition
COc1cc(OC)c(NC(=O)Cn2nc(C)n3cccc3c2=O)cc1Cl |  | inactive: -4.19%
COc1ccc(-c2cc(C(=O)Nc3cc(C)n(Cc4ccc(Cl)cc4)n3)no2)cc1OC | inconclusive: 10 µM [activator, partial curve] | 
CCOc1ccc(NC(=O)Nc2cccc(C)n2)cc1 | inconclusive: 31.6 µM [inhibitor, single point] | 
O=C1CN(c2nc(-c3ccccc3)c3cc(Br)ccc3n2)c2ccccc2N1 | active: 12.6 µM | 
O=C(COc1cc(O)c2c(=O)cc(-c3ccccc3)oc2c1)c1ccc(F)cc1 | active: 12.6 µM | 
Cc1nc2ccn(Cc3ccccc3)c(=O)c2cc1C(=O)Nc1ccc(F)cc1Cl |  | inactive: 3.43%
CCCCc1nc2ccccc2c(=O)n1NC(=O)c1c(O)c2c(n(CC(C)C)c1=O)CCCC2 | inconclusive: 39.8 µM [inhibitor, single point] | 
O=C(COc1ccccc1C(=O)c1cnn(-c2ccccc2)c1)Nc1ccc2ccccc2c1 | inconclusive: 39.8 µM [inhibitor, single point] | 
COc1cccc(CN(C(=O)c2oc3ccc(Br)cc3c2C)C2CCS(=O)(=O)C2)c1 (stereo not drawn) |  | inactive: 16.6%
CCN(CC)C(=O)C1CCN(Cc2cccc(OCc3ccccc3)c2)CC1 | inconclusive: 3.16 µM [inhibitor, single point] | 
CCC(=O)Nc1ccc(Cl)c(NC(=S)NC(=O)c2cc3ccccc3o2)c1 | inconclusive: 31.6 µM [inhibitor, single point] | 
COc1cccc(C2CC(C(F)(F)F)n3ncc(C(=O)Nc4c(C)n(C)n(-c5ccccc5)c4=O)c3N2)c1 (stereo not drawn) | inconclusive: 31.6 µM [activator, single point] | 
CCN(CC)C(=O)C(=O)c1cccn1-c1cccc(-n2cccc2C(=O)C(=O)N(CC)CC)c1C#N | inconclusive: 25.1 µM [activator, single point] | 
N#Cc1c(-n2ncnc2-c2ccc(Br)cc2)sc2c1CCCCC2 |  | inactive: 8.3%
COc1ccc(-c2nc(C)c(CCNC(=O)C(=O)Nc3c(C)cccc3C)s2)cc1OC | inconclusive: 10 µM [activator, partial curve] | 
Cc1cccc(N(C)S(=O)(=O)c2ccc3c(c2)CCC(=O)N3)c1 | inconclusive: 10 µM [activator, partial curve] | 
CC(C)c1ccc(NC(=O)c2ccc3c(c2)CCCN3S(C)(=O)=O)cc1 | inconclusive: 39.8 µM [activator, single point] | 
COc1ccc(-c2noc(CSc3nnc(-c4ccncc4)n3-c3ccc(F)cc3)n2)cc1OC | inconclusive: 31.6 µM [activator, single point] | 
CC(C)(C)OC(=O)N1CCC(c2c(C(=O)NCCCN3CCc4ccccc4C3)cnn2-c2ccccc2)CC1 |  | inactive: -4.93%
CCOc1ccccc1NC(=O)Cn1c(=O)n(CCCC(=O)NCCc2ccc(C)cc2)c(=O)c2ccccc21 |  | inactive: 10.5%
CC(C)(C)C1CCc2c(sc(NC(=O)C3CCCO3)c2C(N)=O)C1 (stereo not drawn) | inconclusive: 31.6 µM [activator, single point] | 
